Consider 45 compounds from paper PMC4336329 (PLoS ONE, 2015).

Each structure is given as a SMILES string. In all, about 310,000 compounds went through this assay and about 2,200 (0.71%) showed an effect of 50% or more. The effect is printed as a negative number. Some of the results follow.

The target of the assay is human ether-à-go-go-related gene (hERG) potassium channel (human, UniProt Q12809). Description: primary screen, population patch clamp on CHO cells stably expressing hERG.
Sequence of human ether-à-go-go-related gene (hERG) potassium channel (Q12809 whole entry, looked up): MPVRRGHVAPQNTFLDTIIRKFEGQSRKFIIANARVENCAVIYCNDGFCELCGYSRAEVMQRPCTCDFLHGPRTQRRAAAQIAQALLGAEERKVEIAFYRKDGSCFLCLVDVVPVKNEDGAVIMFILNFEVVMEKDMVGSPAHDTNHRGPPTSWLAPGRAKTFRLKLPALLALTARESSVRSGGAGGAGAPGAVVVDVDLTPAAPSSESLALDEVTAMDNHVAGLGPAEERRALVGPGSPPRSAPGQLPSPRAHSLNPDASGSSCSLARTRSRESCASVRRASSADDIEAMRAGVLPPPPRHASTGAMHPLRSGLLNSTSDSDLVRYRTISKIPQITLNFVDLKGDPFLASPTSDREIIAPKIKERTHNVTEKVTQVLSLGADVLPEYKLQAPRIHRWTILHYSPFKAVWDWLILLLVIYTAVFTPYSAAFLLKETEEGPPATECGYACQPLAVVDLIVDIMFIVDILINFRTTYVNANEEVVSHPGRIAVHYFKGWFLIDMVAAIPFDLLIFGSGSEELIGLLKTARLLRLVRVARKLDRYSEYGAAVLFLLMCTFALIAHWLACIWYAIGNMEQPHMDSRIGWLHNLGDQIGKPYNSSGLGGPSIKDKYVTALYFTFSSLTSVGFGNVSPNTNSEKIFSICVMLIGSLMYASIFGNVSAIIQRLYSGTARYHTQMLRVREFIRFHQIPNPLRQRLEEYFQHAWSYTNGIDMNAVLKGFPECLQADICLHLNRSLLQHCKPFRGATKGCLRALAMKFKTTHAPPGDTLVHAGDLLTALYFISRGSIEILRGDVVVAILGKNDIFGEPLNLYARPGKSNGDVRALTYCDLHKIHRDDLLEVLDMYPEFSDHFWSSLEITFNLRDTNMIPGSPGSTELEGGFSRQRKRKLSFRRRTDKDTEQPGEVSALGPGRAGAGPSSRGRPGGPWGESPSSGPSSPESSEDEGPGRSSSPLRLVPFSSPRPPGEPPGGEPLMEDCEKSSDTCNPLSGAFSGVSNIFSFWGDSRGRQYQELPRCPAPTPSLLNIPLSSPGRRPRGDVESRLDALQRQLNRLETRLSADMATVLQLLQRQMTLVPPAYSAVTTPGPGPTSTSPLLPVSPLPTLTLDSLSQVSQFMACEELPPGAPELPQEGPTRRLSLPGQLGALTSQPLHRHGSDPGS
Consider `CCCCN(C)C(=O)c1cn(-c2cccc(OC)c2)c(=O)c2ccccc12`, for which the “hERG current change (%, negative = inhibition) at 1uM” value was 6.07%.

As to `O=C(NCCc1ccc(F)cc1)C(=O)NCC1CCCN1S(=O)(=O)c1cccs1` (stereo not drawn), the “hERG current change (%, negative = inhibition) at 1uM” value is listed as -13.7%.

With `CN(Cc1ccccc1)S(=O)(=O)c1ccc(Cl)nc1`, the “hERG current change (%, negative = inhibition) at 1uM” value is listed as -0.0446%.

In the case of `NNc1nc2cc3c(cc2s1)OCCO3`, the “hERG current change (%, negative = inhibition) at 1uM” value is reported as 14.4%.

Consider `Cc1ccc(NC(=O)c2cc(S(=O)(=O)N3CCCCC3)c[nH]2)cc1C`, for which the “hERG current change (%, negative = inhibition) at 1uM” value is on record as 15.9%.

As to `O=C(OCCC1Oc2cccnc2NC1=O)c1ccc([N+](=O)[O-])cc1` (stereo not drawn), the “hERG current change (%, negative = inhibition) at 1uM” value was 10%.

Turning to `CCOc1ccc(CCNC(=O)c2cnccn2)cc1OCC`, the “hERG current change (%, negative = inhibition) at 1uM” value is on record as 13.3%.

As to `CN(NS(=O)(=O)c1cccs1)c1ncc(C(F)(F)F)cc1Cl`, the “hERG current change (%, negative = inhibition) at 1uM” value is given as 9.96%.

`CCOC(=O)N1CCN(CC(=O)N2c3ccccc3CC2C)CC1.O=C(O)C(=O)O` (stereo not drawn): the “hERG current change (%, negative = inhibition) at 1uM” value is on record as 13.6%.

For the compound `NC(=O)c1ccc(N2CCN(c3ccccc3F)CC2)c([N+](=O)[O-])c1`, the “hERG current change (%, negative = inhibition) at 1uM” value is listed as 1.62%.

As for `O=C(NC(=O)c1ccccc1)NC1(C(F)(F)F)OCCO1`, the “hERG current change (%, negative = inhibition) at 1uM” value is reported as 4.71%.

For `CCOC(=O)Cn1nc(C)c2c1CCCC2=O`, the “hERG current change (%, negative = inhibition) at 1uM” value stood at 4.27%.

With `CC(=O)Nc1c(C)ccc(CNC(=O)COc2cc(C)ccc2C)c1C`, the “hERG current change (%, negative = inhibition) at 1uM” value came to 2.39%.

Regarding `O=C(NNC(=O)c1ccc(Br)s1)NC1CCCCC1`, the “hERG current change (%, negative = inhibition) at 1uM” value worked out at 22.3%.

`Cc1ccc(C2NC(c3ccc(C)cc3)C(C)C(=O)C2C)cc1` (stereo not drawn): the “hERG current change (%, negative = inhibition) at 1uM” value is listed as 6.61%.

Turning to `Cc1ccc2nc(SCC(=O)Nc3ccc(C)c(Cl)c3)nc(=O)n2c1`, the “hERG current change (%, negative = inhibition) at 1uM” value is -9.4%.

Turning to `COc1cccc2cc(-c3csc(NC(=O)CCC(=O)NCCCN4CCC(C)CC4)n3)c(=O)oc12`, the “hERG current change (%, negative = inhibition) at 1uM” value was 3.15%.

On to `COC(=O)C1=C(C)Nc2c(c(=O)n(C)c(=O)n2C)C1c1ccc(Cl)cc1` (stereo not drawn), for which the “hERG current change (%, negative = inhibition) at 1uM” value is listed as -5.21%.

`COc1cc(OC)cc(C(=O)NCC(=O)OCc2nc3ccccc3s2)c1`: the “hERG current change (%, negative = inhibition) at 1uM” value came to 12.5%.

Consider `CCOC(=O)C1=C(COC(=O)Cc2ccc(OC)c(OC)c2)NC(=O)NC1C` (stereo not drawn), for which the “hERG current change (%, negative = inhibition) at 1uM” value was 6.7%.

On to `COc1ccc2c(c1)C(=O)N(c1ccc(C)cc1C)C(=O)C2`, for which the “hERG current change (%, negative = inhibition) at 1uM” value came to 12.7%.

On to `CCOc1cc(C2C(C#N)=C(N)Oc3n[nH]c(CC)c32)ccc1OCCN1CCOCC1` (stereo not drawn), for which the “hERG current change (%, negative = inhibition) at 1uM” value worked out at 8.96%.

Consider `CCOC(=O)c1c(C)c[nH]c1C`, for which the “hERG current change (%, negative = inhibition) at 1uM” value stood at 15.3%.

For the compound `CSc1nsc2nc(=O)c(/C=C3\C=Nc4ccccc43)c(N)n12`, the “hERG current change (%, negative = inhibition) at 1uM” value amounted to 5.08%.

Take `Cc1ccc(C2NS(=O)(=O)N=C2N)cc1` (stereo not drawn): the “hERG current change (%, negative = inhibition) at 1uM” value was -2.29%.

`COc1ccc(NC(=O)CN2C(=O)C(C)SC(C)C2=O)c(OC)c1` (stereo not drawn): the “hERG current change (%, negative = inhibition) at 1uM” value is on record as 7.69%.

On to `CCNc1nc(NC(C)(C)C)nc(N2CCCC2)n1`, for which the “hERG current change (%, negative = inhibition) at 1uM” value was 2.82%.

On to `COc1ccc(OC)c(NC(=O)c2cccc(NC(=O)c3ccccc3C(=O)O)c2)c1`, for which the “hERG current change (%, negative = inhibition) at 1uM” value came out at 11.1%.

Turning to `Brc1ccc(CNc2ccc3ncccc3c2)cc1`, the “hERG current change (%, negative = inhibition) at 1uM” value is recorded as 12.9%.

`O=C1O[C@@H]([C@H](O)CO)C(O)=C1O`: the “hERG current change (%, negative = inhibition) at 1uM” value is listed as 9.37%.

As for `CCCNC(=O)C1CCN(c2cc(-c3ccccc3)nc3ncnn23)CC1`, the “hERG current change (%, negative = inhibition) at 1uM” value is recorded as -65.6%.

Regarding `O=C1C=C(c2ccc(-c3ccccc3)cc2)C[C@@H](c2ccc3c(c2)OCO3)C1`, the “hERG current change (%, negative = inhibition) at 1uM” value was -0.902%.

As to `O=C1C=C(c2ccccc2)OC(=O)C1C(=O)c1ccccc1` (stereo not drawn), the “hERG current change (%, negative = inhibition) at 1uM” value came out at 16.5%.

Consider `CC(C)OC(=O)c1cc2c(=O)[nH]c(C(Cl)(Cl)Cl)nc2o1`, for which the “hERG current change (%, negative = inhibition) at 1uM” value was 6.63%.

Regarding `O=C(c1cc([N+](=O)[O-])cc([N+](=O)[O-])c1)N1CCOCC1`, the “hERG current change (%, negative = inhibition) at 1uM” value turned out to be 14.4%.

Regarding `CCCC(NC(=S)NCC1CCCO1)C12CC3CC(CC(C3)C1)C2` (stereo not drawn), the “hERG current change (%, negative = inhibition) at 1uM” value was 8.67%.

With `O=C(NCC1CCCO1)C1CCCN(c2ncccn2)C1` (stereo not drawn), the “hERG current change (%, negative = inhibition) at 1uM” value is 19.4%.

With `O=C(O)C(=O)O.Oc1ccccc1CN1CCN(C(c2ccccc2)c2ccccc2)CC1`, the “hERG current change (%, negative = inhibition) at 1uM” value was determined as 14.7%.

Turning to `CCC(=O)Nc1nnc(C(C)(C)C)s1`, the “hERG current change (%, negative = inhibition) at 1uM” value turned out to be 23%.

Regarding `CC(NC(=O)CNC(=O)c1ccccc1F)c1ccc(-n2ccnc2)cc1` (stereo not drawn), the “hERG current change (%, negative = inhibition) at 1uM” value is -14.2%.

Consider `CCCCCCCCCCCC(=O)NC(C(=O)O)C(O)c1ccccc1` (stereo not drawn), for which the “hERG current change (%, negative = inhibition) at 1uM” value is listed as 8.03%.

With `O=C(Cn1c(C(F)(F)F)nc2ccccc21)N1CCCC1`, the “hERG current change (%, negative = inhibition) at 1uM” value was found to be 0.741%.

Turning to `O=C1CCCC2=C1C(c1cccc(O)c1)C1=C(N2)c2ccccc2C1=O` (stereo not drawn), the “hERG current change (%, negative = inhibition) at 1uM” value turned out to be 8.43%.

In the case of `CN(C)c1nc2c(c(=O)[nH]c(=O)n2C)n1CCOc1ccccc1`, the “hERG current change (%, negative = inhibition) at 1uM” value amounted to 17.1%.

As to `O=C(NCc1ccco1)c1cnn2c1NC(c1ccccc1)CC2C(F)(F)F` (stereo not drawn), the “hERG current change (%, negative = inhibition) at 1uM” value is 1.09%.
